The list shows a part of the results. At the low end of the ranking the order means little. The protein was read in a cell extract, so binding may be indirect.

The test deals with T1, HNF4alpha2 (COS-7 nuclear extract) (UniProt P41235).
T1 sequence: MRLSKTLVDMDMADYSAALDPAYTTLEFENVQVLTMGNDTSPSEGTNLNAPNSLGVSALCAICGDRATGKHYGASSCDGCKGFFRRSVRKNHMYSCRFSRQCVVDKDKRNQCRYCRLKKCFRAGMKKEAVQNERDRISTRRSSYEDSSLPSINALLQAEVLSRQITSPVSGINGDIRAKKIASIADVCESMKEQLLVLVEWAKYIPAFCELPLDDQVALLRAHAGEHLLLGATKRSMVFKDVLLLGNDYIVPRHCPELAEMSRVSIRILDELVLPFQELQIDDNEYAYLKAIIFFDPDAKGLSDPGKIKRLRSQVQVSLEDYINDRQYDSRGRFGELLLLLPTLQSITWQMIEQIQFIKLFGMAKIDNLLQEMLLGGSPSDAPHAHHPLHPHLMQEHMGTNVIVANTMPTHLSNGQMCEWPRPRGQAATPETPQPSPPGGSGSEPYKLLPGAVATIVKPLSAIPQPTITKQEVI
Kind of test: protein-binding microarray. The settings on record: COS-7 nuclear extract on double-stranded Agilent 4x180k PBM; binding buffer, salt, pH and temperature not given; high values mean tight binding; double strand, one strand shown; sequences stand for … in …GCCTAGGGAGATTAGAGTATCGGTCGA
As for GACAGGATGGGGGTGGGAGGCTGGGAGGAG, the binding signal (log2 normalized intensity) was -1.23.
With AGCGGGGGCAAGCCCACTCTCTGAGTCTGA the figure was -1.03; with CCCTTGGCCTACTTAGTCCAGGTTTAGCAA, -0.896; with CAGCACCAAGAACAAACAAAAACCAAAAAA, -1.06.
With CAAATATTTGCCTAGGATTCTGGGAGGGGA the figure was -1.02; with TCAGTGAGCCTTGACCTTCATGCTACTGTG, 1.62; with CCAAAGAAGCCACAGAAGTCTTTCCCTGCC, -0.999.
With AACATGTAGGTCAAAGAATGCCTGGGTCAA the figure was 1.92.
In the case of TTAGGTGCTGAGCAACTATAAAACAGGAAA, the binding signal (log2 normalized intensity) is -0.703.
As to AAGATTCAGAACCCATTAATTTAGCACTTA, the binding signal (log2 normalized intensity) was -1.01.
With AGAGGTATCATGAGGTATATTCAACCCCCA the figure was 4.13.
Turning to CATGTTTGGGTCACAATCACAAATGCCTTC, the binding signal (log2 normalized intensity) worked out at 0.579.
With GGGCTGGGGAAACAAAATAATAGTTGACCT the figure was 4.21.
With TCCCATGGCTAATCTGTGACTGAGCAGAGA the figure was -1.
On to AGCTGTCTGGTTTGACCTTAAGTCAGAAGA, for which the binding signal (log2 normalized intensity) is 3.26.
With TTCCTCAGATGGAATGTGTGCCCGTCACCT the figure was 1.74.
With TTTAATGATGAGTCCAAGTTCCACATCAAG the figure was 0.978.
With CGTCCGCGGAAGCACACACGAGCTGTGCGC the figure was -1.05; with CCTATTCTGAAGATTGCTAGCTGAGAGACT, -1.08.
Regarding TTCAGGGAGACTTCCAGGGAATAAAGAACT, the binding signal (log2 normalized intensity) was -1.1.
In the case of GGGTCAAGAAGACCTGGGCTCAAATCTGGA, the binding signal (log2 normalized intensity) was -0.949.
With AATCCTCCACTCTCCAAAATAGGGTAGTTT the figure was 1.02.
With TATTAGGAAATTGTCAGTGCCCTATACAGA the figure was 0.206; with AAGGGTCCAGATTAGAGCACAATGTGGGGA, -0.716; with CATGAATCCATCCCACCTCACTTATCACAT, 1.02.
With GGATCCGCAGCCAGGGCTGTTTTCTCCAGT the figure was -1.14; with GAGCAAAGCTGATAAAGAGGACAGAGCCTG, -0.895.
For the sequence TTGCCATGTGACAATTCTTCCTTCATCTGG, the binding signal (log2 normalized intensity) amounted to 1.05.
With TAGCATAATCAAAGAGAAAAACATTGCATA the figure was -0.835; with AGAATCTAATCAGGCCTCCCTCCCTCCCCC, 5.6; with GGCTTAAACCTTTAATGATGAGTCCAAGTT, 2.35.
With GCCCAGAGGAAGGAATGCACATGCCTTAAG the figure was -1.2.
With GAATTGTCTAACCGCAGCAAGACACTTCCA the figure was -1.21.
On to AATGGATGGCAAATAAAGGAACTCTTATCT, for which the binding signal (log2 normalized intensity) was -0.765.
With AGTGCTATCCCTGGAGCCTTAGAAGATGAC the figure was -1.08; with CACAAGCTGGGTCAACATCAGCCCTCCTAG, 1.49; with GCATCACTCTTGCCACAGAACAGGCTGTTT, -0.686.
With TCATCTTCAAAGCCAGCAATGGCAGGTCCA the figure was 1.41.
With ATAGTCATTCTTCTACAGTGTTTACCGGAT the figure was 2.14; with TCCTCACCCCACTTTGGTTCACCGCTCACT, 1.21; with GTGGCTATGGCTGGGATATCAGGTATTGCC, 0.099.
On to TCTGGTCAGACTGAGAGAGCAGGGCCCGAG, for which the binding signal (log2 normalized intensity) is -1.11.
With GGAAGGTTTCACCCTGAGGAATCCCATTCC the figure was -1.07; with CCTGTGTGTACTGGGCAGATAACAGCGAAC, 0.177; with CCAGGCGACTGGGCCAGGAGCAGGAGCAGA, -1.06.
With TGCCAACAGGTGCTCTTTATCAGCACCAAG the figure was -1.15.
With CTCTGGATGCAGGTCGCCGGGAAAACCCGG the figure was -1.11; with CAAGAGGTTTTAGGCTATCAGACAGCCACA, -0.99; with CTATAGAGGCAGTGAGCCTTGCCGTGCTGC, -1.09.
Take TGACTGAGCTCGCGCCGGGCACTGATAACG: the binding signal (log2 normalized intensity) is -1.01.
For TACATAACAATGCAAGATAAAAGTGAGCAA, the binding signal (log2 normalized intensity) is -1.12.
For CCCTGGGGGTGGGGGTGTGGGTAGCAGCTG, the binding signal (log2 normalized intensity) is -1.01.
With TCTTGTGGCCATTTGGGAAACCGCGATTAA the figure was -0.6; with CTCCCACATCTTTAATTATCATCTCTGTGT, 1.77.
With TGGCTTGGAACTGACATGCTGTCACTTCTG the figure was -1.04; with CAGCTTTGAAGTGCTTCCTGTGTATTTCTT, 1.35; with TGGGACTGGCAAAGCCATGAAGCAATTCTG, -1.12.
With CTTAACTTGGTTTCCCTGGAAACAGATAAA the figure was -0.758.
Turning to ACACTGCCATTTAAAAGTTTCCCTTGATCA, the binding signal (log2 normalized intensity) was found to be 0.876.
With GGCGGCTAGTGTACAGGTGACCTTTGGAAT the figure was 8.95; with ACACAGACACACATGAGCTAGTGCTAAAGG, -0.851; with CTGCCATAAACTTCTCCCCCACATGGAAAC, 3.9.
With AGCTTGCTCTCACCAGCTTCTTCTCTTTGA the figure was -1.07; with CCTCCTGCTTAGCGGCCTTCCCCTTTTTCT, 1.96; with AAAAGTCCAGCTGCCAGGGAGACAAAGTGT, -0.469.
With TGGGGATAAACACCCCCATCTATGCACTCT the figure was 0.81; with AATAAACTGAGGGGTGGGGACCAGTGGGGG, -1.04; with AGAAAGACATGTTTCTAACTGCCCGCATTC, 0.246.
For the sequence GGGCAAAGGTCAGGATCTCAGCCGCGCGGC, the binding signal (log2 normalized intensity) is 4.1.
With GCATGCCTCCCAGAGCATTGTTTATTGTTG the figure was 1.27; with GGCATTGTGTTACGTCTGGTTTCTTATCTT, 1.34; with CAGTTAACGGGGACGCTTTAGAGAAACGCA, -0.92.
